We go through 48 compounds from PubChem BioAssay AID1159614 (National Center for Advancing Translational Sciences (NCATS), 2016).

Structures are written as SMILES. The whole screen tested about 45,000 compounds, of which about 65 (0.1%) were called active. The call rests on the fitted dose curve; in most records, active means well fitted activation curve with a large enough effect; inconclusive means small, poorly fitted or top-dose-only effect; inactive means no such curve, though single readings can be large or run the other way. The list shows a part of the results.

In the assay the target is Galactocerebrosidase (Homo sapiens) (UniProt P54803). As to the kind of experiment: A Novel Cell-Based Assay to Identify Small Molecules for B -Galactocerebrosidase. Further: 0% is about no effect; nearly all actives have a fitted effect of over 65% in size. The settings on record: 145M-Twi-hGALC-G270D cells (Twitcher mouse brain line with human GALC G270D), HMU-beta-Gal fluorescence, 48 h; series mostly up to 57.5 µM; activation: at the top concentration. From the text: Lysosomal storage diseases (LSDs) are caused by genetic mutations in genes encoding proteins important for normal lysosomal function. Globoid cell leukodystrophy (GLD), mostly known as Krabbe disease, is a prototype of the neurological LSDs caused by deficiency of beta-galactocerebrosidase (GALC). In brain specimens of GLD patients, psychosine levels are substantially elevated. At elevated concentrations, psychosine becomes cytotoxic to neuronal cells, particularly to oligodendrocytes (OLG), neural cells responsible for myelin formation. Therefore, the biochemical disturbances in GLD are manifested by different degrees of brain demyelination resulting in a broad spectrum of neurological manifestations. Most of the FDA-approved therapies are based on enzyme replacement therapeutic (ERT) agents, which treat non-neurological symptoms of Gaucher disease, Fabry disease, few mucopolysaccharidoses and Pompe disease. Unfortunately, in GLD, a primarily neurological LSD, ERT agents, as large molecular weight molecules unable to cross the blood-brain barrier, which makes this an inefficacious therapeutic approach. In GLD, increasing the residual GALC activity just above the critical threshold (~10% of wild type enzymatic activity), the cytotoxic levels of psychosine will be reduced, avoiding the OLGs apoptosis and the subsequent demyelination process. This will translate in disease stabilization and amelioration of GLD patient symptoms.
UniProt P54803, sequence (P54803 whole entry, looked up): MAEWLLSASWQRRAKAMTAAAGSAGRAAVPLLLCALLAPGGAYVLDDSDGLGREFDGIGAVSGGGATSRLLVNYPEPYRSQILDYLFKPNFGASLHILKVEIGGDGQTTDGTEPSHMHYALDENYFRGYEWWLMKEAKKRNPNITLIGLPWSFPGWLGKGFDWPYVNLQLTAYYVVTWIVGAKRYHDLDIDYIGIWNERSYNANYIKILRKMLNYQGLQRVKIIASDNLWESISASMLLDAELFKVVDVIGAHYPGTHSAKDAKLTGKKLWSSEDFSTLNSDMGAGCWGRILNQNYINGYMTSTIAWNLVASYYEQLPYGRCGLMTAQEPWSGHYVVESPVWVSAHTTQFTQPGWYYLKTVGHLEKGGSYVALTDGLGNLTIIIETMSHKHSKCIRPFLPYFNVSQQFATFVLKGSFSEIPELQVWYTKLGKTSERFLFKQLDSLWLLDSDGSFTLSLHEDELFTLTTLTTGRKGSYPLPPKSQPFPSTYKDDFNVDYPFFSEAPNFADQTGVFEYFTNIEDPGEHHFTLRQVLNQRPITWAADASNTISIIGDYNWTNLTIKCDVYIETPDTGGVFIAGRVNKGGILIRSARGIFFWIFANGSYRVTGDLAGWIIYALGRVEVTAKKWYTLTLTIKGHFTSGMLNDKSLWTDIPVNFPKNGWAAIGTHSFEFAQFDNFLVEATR
A cell-based assay in 1,536-well plate format was developed to implement a quantitative high-throughput screening (qHTS) assay using GLD-disease relevant cells to identify small molecules that produce enhancements of the residual enzymatic activity levels of mutants GALC found and prevalent in GLD patients. Compounds that are active may therefore have some therapeutic application for GLD. After the treatment of live cells for a determined period, using a fluorescent GALC specific substrate, the mutant residual GALC activity is measured. This cell-based qTHS assay was used to screen part of the MLPCN library for small molecule able to increase the mutant GALC enzymatic activity. In this assay, increased fluorescent signal corresponds to enhanced levels of mutant GALC residual enzymatic activity. Activation is the desired outcome for this assay.
NIH Chemical Genomics Center [NCGC]
NIH Molecular Libraries Probe Centers Network [MLPCN]
Assay Submitter (PI): Gustavo Maegawa MD,PhD, University of Florida, Gainesville, FL
2)#Two cell lines were established for the assay: 145M-Twi-hGALC-G270D (brain-derived Twitcher cell line stably expressing human GALC-G270D) and 145M-Twi-hGALC-WT (same 145M-Twi stably expressing human GALC wild type). The Twitcher is the murine C57B/6 model for GLD with naturally occurring homozygous nonsense GALC mutation. The 145M-Twi cell line was established at Maegawa lab (Ribbens J et al 2014).
a.#Media: DMEM/F12 (1:1) with 10% fetal bovine-serum (FBS) with penicillin/streptomycin (PS-1X - 100 I.U./mL of penicillin+100 ug/mL of streptomycin).
b.#The 6-Hexadecanoylamino-4-methylumbelliferyl-b-D-galactoside (HMU-B-gal) substrate was prepared as per Wiederschain et al 1992. Using 20-mL borosilicate tubes, 2.20 mg of HMU-b-Gal was added in each tube to prepare substrate-film with a final air-nitrogen stream evaporation to remove all diluent solvents.
c.#The HMUb-Gal substrate buffer consists of 0.2 M Na2HPO4 (sodium phosphate dibasic)/ 0.1 M Citric Acid with the pH adjusted to 5.2 using HCl. Sodium Azide at 0.02% and Sodium Taurocholate (NaTC) at 1 mg/mL were added to this substrate buffer.
d.#The HMU-b-Gal stopping buffer consist of 0.5 M NaHCO3 (sodium bicarbonate) /0.5 M Na2CO3 (sodium carbonate). […] Triton X-100 at 0.25% was added.
4)#Preparation of HMU-b-Gal substrate tubes
Adding 18.6 mL of the HMUb-Gal substrate buffer to each 20-mL tube (2.20 mg of HMU-b-Gal) will reach a concentration of 0.2 mM. Vortex well the tube until the solution is fully homogenized (clear cloudy solution). […]
In the case of `CC1CN(c2cc3c(cc2F)c(=O)c(C(=O)O)cn3-c2ccc(F)cc2F)CCN1` (stereo not drawn), the activation was inactive: -7.93% [at 5.77 µM].

On to `CSc1ccc(/C=C/c2nc3ccccc3n2S(=O)(=O)c2ccc(F)c(C)c2)cc1`, for which the “activation” value is inactive: -20.3%.

Regarding `CCOc1ccc(NC(=O)CCc2c(C)nc3c(c(C)nn3-c3ccccc3)c2C)cc1`, the “activation” value is inactive: -13%.

`CCc1ccc(CN(Cc2ccco2)C(=O)c2ccc(C)cc2)cc1`: the “activation” value was inactive: -2.52%.

In the case of `Cc1ccc(S(=O)(=O)n2nc(C)c(S(=O)(=O)N3CCCCC3)c2C)cc1`, the “activation” value was inactive: 0.493%.

With `CCCCN(CC)C(=O)C1CCC(CNS(=O)(=O)c2cccc3nsnc23)CC1` (stereo not drawn), the “activation” value was inactive: -13.1%.

`Cc1cc(NC(=O)c2ccco2)cc(-c2nc3cc(Cl)ccc3o2)c1O`: the “activation” value was inactive: -10%.

In the case of `COc1ccccc1C(=O)N(Cc1ccco1)Cc1ccccc1F`, the “activation” value was inactive: 2.18%.

As for `COc1ccc(Cl)cc1NC(=O)CN1C(=O)CSc2ccc(S(=O)(=O)N3CCCC3)cc21`, the “activation” value was inactive: -7.39%.

As for `COc1cc(OC)c(NC(=O)CN(C)S(=O)(=O)c2ccc3c(c2)CCCC(=O)N3)cc1Cl`, the “activation” value is inactive: -27.6%.

For the compound `CCc1ccc(C(=O)c2cn(CC(=O)Nc3cccc(C)c3C)c3nc(C)ccc3c2=O)cc1`, the “activation” value was inactive: -8.52%.

As for `COc1ccc(CCNC(=O)C2=C(C)C(=O)OC23CCCCC3)c(OC)c1`, the “activation” value is inactive: -18.9%.

`COc1ccc(CNC(=O)CCc2c(C)nn(-c3ccc(N4CCOCC4)nn3)c2C)cc1`: the “activation” value is inactive: 0.816%.

As for `Cc1ccc(CNC(=O)c2cc(Sc3ccc(F)cc3F)nc3ccccc23)cc1`, the “activation” value was inactive: -20.3%.

Take `Cc1cccc(NC(=O)CSc2nc(C)c(Cc3ccccc3)c(=O)[nH]2)c1C`: the “activation” value is inactive: -17.5%.

With `CCC(C(=O)N(C)Cc1ccccc1)n1nc(C)c2sc3ccccc3c2c1=O` (stereo not drawn), the “activation” value was inactive: -12.8%.

Turning to `COc1ccc(NC(=O)C2CCCN(S(=O)(=O)c3ccc4[nH]c(=O)ccc4c3)C2)cc1OC` (stereo not drawn), the “activation” value is inactive: -7.82%.

For `Cc1ccc2ccc3cc(C(=O)Nc4ccc(C)c(F)c4)nc3c2[nH]1`, the “activation” value was inactive: -22.9%.

On to `CC(=O)N1CCCC1c1nc2ccccc2n1Cc1cc(C)ccc1C` (stereo not drawn), for which the “activation” value was inactive: -11%.

Turning to `CCOC(=O)N1CCN(S(=O)(=O)N2CCCC(C(=O)NCc3ccccc3OC)C2)CC1` (stereo not drawn), the “activation” value was inactive: -6.13%.

Turning to `CCOC(=O)c1ccc(CN(Cc2ccc(F)cc2)S(=O)(=O)c2cc(C(=O)Nc3ccccc3CC)ccc2F)cc1`, the “activation” value is inactive: -20.7%.

For `O=C(NCC(c1cccnc1)N1CCc2ccccc2C1)C(=O)Nc1cccc(Cl)c1` (stereo not drawn), the “activation” value was inactive: -15.4%.

Turning to `COc1ccc(-c2cc(C(=O)NCCc3ccccc3)c3c(-c4ccccc4)[nH]nc3n2)cc1`, the “activation” value was inactive: -7.17%.

As for `O=C(Cc1ccc(F)cc1)Nc1cccc(-c2nc3cccnc3s2)c1`, the “activation” value is inactive: -0.704%.

On to `Cc1cccc(N2CCN(C(=O)CCCn3ncn4c(cc5occc54)c3=O)CC2)c1C`, for which the “activation” value is inactive: -13.8%.

On to `CCOc1cc(CNCCSc2nnnn2C)cc(Cl)c1OCc1ccc(Cl)cc1`, for which the “activation” value was inactive: 2.35%.

On to `CCc1ccc(NC(=O)CCc2c(C)n(C)c3cc(-c4ccccc4C)nn3c2=O)cc1`, for which the “activation” value is inactive: -6.03%.

`Cc1ccc(CCNS(=O)(=O)c2ccc3c(c2)CCN3C(=O)CCC(=O)O)cc1`: the “activation” value is inactive: -12.7%.

As to `CCOC(=O)c1cnc2c(ccc3ccccc32)c1Nc1ccc(OC)cc1OC`, the “activation” value was inactive: -3.64%.

In the case of `COc1cccc(N=C2SC(C(=O)Nc3cccc(Cl)c3)CC(=O)N2C)c1` (stereo not drawn), the “activation” value was inactive: -29.7%.

With `Cc1ccc(/C=C/c2nc3ccccc3n2S(=O)(=O)c2ccc(Br)cc2)cc1`, the “activation” value was inactive: -11.8%.

In the case of `CC(=O)N1CCc2c(sc3c2c(=O)n(-c2ccccc2)c(=O)n3Cc2cccc(C(F)(F)F)c2)C1`, the “activation” value was inactive: -15.1%.

Consider `COc1ccc(N2CCN(C(=O)CCc3c(C)nc4cc(-c5cccc(F)c5)nn4c3C)CC2)cc1`, for which the “activation” value is inactive: -21.3%.

As to `Cc1ccccc1C(=O)N1CCCCC1CCN1CCCCC1` (stereo not drawn), the “activation” value was inactive: -8.91%.

As to `COc1ccc(OC)c(NC(=O)CSC2=Nc3ccccc3C3=NC(CCC(=O)NC4CCCCC4)C(=O)N23)c1` (stereo not drawn), the “activation” value is inactive: -13.7%.

On to `COC(=O)c1c(NC(=O)COc2ccc(Cl)cc2C)sc2c1CCCCC2`, for which the “activation” value is inactive: -2.42%.

`COc1ccc(C)cc1NC(=O)c1oc2ccc(S(=O)(=O)N3CCOCC3)cc2c1C`: the “activation” value was inactive: -6.91%.

For `CCc1nn(CC(=O)NCCCN2CCN(C)CC2)c(=O)c2cc3occc3n12`, the “activation” value was inactive: -10.8%.

For the compound `CSc1ncc(C(=O)N2CCN(c3ccc(Cl)cc3)CC2)c(C)n1`, the “activation” value is inactive: -12.4%.

For `COc1ccc(C(=O)c2c(N)c(-c3nc(-c4ccccc4)cs3)c3ccccn23)cc1`, the “activation” value was inactive: 0.815%.

For `COc1ccc2nc3sc(C(=O)N4CCN(c5ccc(F)cc5)CC4)cc3cc2c1`, the “activation” value is inactive: -10.7%.

Regarding `Cc1ccc(C)c(N2CCN(S(=O)(=O)c3ccc4c(c3)CCCN4C(=O)C3CCC3)CC2)c1`, the “activation” value is inactive: -15.6%.

As for `CCc1ccc(C(=O)CSc2nc(-c3ccccc3)nc3c2CCCC3)cc1`, the “activation” value is inactive: -11.8%.

Turning to `Cc1ccc(CNC(=O)CN2C(=O)CSc3ccc(S(=O)(=O)N4CCCC4)cc32)cc1`, the “activation” value was inactive: -11.6%.

As to `CN(C)c1ccc(CNC(=O)CN2C(=O)CCn3nc(-c4cn(C)c5ccccc45)cc32)cc1`, the “activation” value was inactive: -19.9%.

In the case of `COc1cccc(-c2nc3c(c(SCc4ccccc4Cl)n2)Cc2c(CO)cnc(C)c2O3)c1`, the “activation” value was inactive: -14.3%.

Turning to `COc1ccc(CNS(=O)(=O)c2ccc(F)c(C(=O)Nc3c(C)cc(C)cc3C)c2)cc1`, the “activation” value was inactive: -6.51%.

Consider `CCOC(=O)c1cc(-c2ccc(OC)cc2)n(CCC(=O)Nc2cccc(C(C)=O)c2)c1C`, for which the “activation” value was inactive: -17.2%.
